Measurements taken from US20260263442A1, “METHOD FOR TREATING L-DOPA-INDUCED DYSKINESIA USING BEFIRADOL” (Neurolixis, Inc., priority 2023, published 2026).

System: L-DOPA-induced dyskinesia (LID) in Parkinson's disease patients
Assay: PD Home Dyskinesia eDiary, Good ON Time, Phase 2a study
Format: in vivo, human
Conditions: baseline, n=15

Cc1ccc(CNCC2(F)CCN(C(=O)c3ccc(F)c(Cl)c3)CC2)nc1 [NLX-112]
Proportion of good ON time: 57.6%
